The record followed here is ChEMBL document CHEMBL4888484, “Replenishing the malaria drug discovery pipeline: Screening and hit evaluation of the MMV Hit Generation Library 1 (HGL1) against asexual blood stage Plasmodium falciparum ,using a nano luciferase reporter read-out” (2022).

Among all 150,000 compounds or so, about 540 (0.36%) showed an effect of 50% or more. The list shows a part of the results.

The subject of the assay is Plasmodium falciparum. Description: Primary screen in NF54 nanoGlo assay, in single point, at 2uM, 72h; a lower Z score goes with more inhibition. In kind it is functional, Erythrocyte. The note with it: timepoint 72 hour.
The % Inhibition is the drop in the measured response relative to a control, in per cent. In the case of `Cc1ccccc1NC(=O)c1cnn2c1NC(C(=O)O)=C[C@H]2c1ccc(C(C)C)cc1`, the “% Inhibition” value is listed as -3% and the Z score is 0.53.
In the case of `CCC(CC)(CO)CN(C)C(=O)c1nccnc1O`, the “% Inhibition” value is -7% and the Z score was 1.33.
For the molecule `O=C(Nc1ccc(Cl)c(Cl)c1)N1CCCCCC1=Nc1ccc(Br)cc1`, the “% Inhibition” value was 32% and the Z score is -3.66.
Taken in the same sequence, the figures for `COC(C)c1noc(CNC2CC(C)CCC2C(C)C)n1` (stereo not drawn) were -6% and 0.55.
In the case of `Cc1nn(-c2ccccc2)c(Oc2ccc(F)cc2)c1CN(CC1CC1)C[C@H](O)c1ccccc1`, the “% Inhibition” value came out at 1% and the Z score is on record as -0.2.
As to `CCc1cnc(N2CCn3nc([C@H](O)c4nccn4C)cc3C2)nc1`, the “% Inhibition” value is on record as 14% and the Z score is -1.76.
In the case of `Cc1ccc(C(=O)CCn2ccnc2)cc1`, the “% Inhibition” value worked out at 10% and the Z score was -1.01.
As to `C=CCNC(=O)CN[C@@H](C)c1cccc(F)c1F`, the “% Inhibition” value is 3% and the Z score is -0.43.
Taken in the same sequence, the figures for `COC[C@H](NC(=O)c1cccc(-c2ccco2)c1)c1ccccn1` were -4% and 0.83.
Taken in the same sequence, the figures for `CC[C@@](C)(C(=O)NC1CCCC1)N(C(=O)c1ccc2c(c1)OCO2)c1c(C)n(C)n(-c2ccccc2)c1=O` were -7% and 1.15.
As to `C#CCCC1(CCC(=O)N2CCCC2C2CCCOC2)N=N1` (stereo not drawn), the “% Inhibition” value was -16% and the Z score was found to be 2.05.
For `CC(NCCc1ccccc1)C(C)C(c1ccccc1)c1ccccc1` (stereo not drawn), the “% Inhibition” value was -7% and the Z score was 1.2.
Turning to `COc1ccccc1-c1n[nH]cc1CN1CC(=O)NCC12CCCC2`, the “% Inhibition” value is recorded as 32% and the Z score was -4.37.
The like results for `CC(C)(CC(=O)O)CC(=O)N[C@H]1CO[C@H]2[C@@H]1OC[C@@H]2Nc1nccc(C(C)(C)C)n1` were, in that order, 6% and -0.69.
As for `CCc1nnc(NC(=O)[C@H](C)n2nc(C3CCNCC3)n(CC)c2=O)s1`, the “% Inhibition” value is on record as -13% and the Z score was determined as 1.52.
The like results for `Cc1n[nH]c(C)c1CC(=O)N(Cc1ccccn1)Cc1ccco1` were, in that order, -16% and 2.33.
For the molecule `Cc1cnccc1CCN[C@@H](C)c1cn2ccccc2n1`, the “% Inhibition” value is given as -6% and the Z score is 0.77.
For the molecule `Cc1cc(N2CCC[C@H](C(N)=O)C2)n2ncnc2n1`, the “% Inhibition” value is -2% and the Z score amounted to 0.29.
For `CNC(=O)Cc1csc(NC(=O)Cc2noc3ccccc23)n1`, the “% Inhibition” value was -21% and the Z score amounted to 2.42.
On to `COc1cccc(NC(=O)Cn2c(=O)n(CCCC(=O)NCc3ccco3)c(=O)c3cc(Cl)ccc32)c1`, for which the “% Inhibition” value is reported as -5% and the Z score is 0.74.
For the molecule `COc1cccc2c1CCC[C@@H]2NC1CCC(O)(c2cccnc2)CC1` (stereo partly drawn), the “% Inhibition” value is -7% and the Z score was found to be 0.87.
The like results for `COc1ccc2c(c1)CN(C(=O)c1[nH]c(=O)[nH]c1C)CC2` were, in that order, -10% and 1.38.
Regarding `Cc1ccc(CNC(=O)CC2CC2)c2cccnc12`, the “% Inhibition” value is reported as -16% and the Z score is 2.46.
On to `CC(C)(CO)N(Cc1ccncc1)C(=O)Nc1ccccc1Oc1ccccc1`, for which the “% Inhibition” value was determined as 5% and the Z score is -0.85.
The like results for `CCC(=O)N1CCc2cc(CNC(=O)c3cccc(C)c3)ccc21` were, in that order, -5% and 0.93.
Consider `Cc1ccc(OCC(=O)N(Cc2ccco2)c2ccc(Cl)cc2)cc1`, for which the “% Inhibition” value is recorded as -11% and the Z score was 1.46.
Turning to `Cc1cccc(NC(=O)N2C3CCC2CC(Oc2ccccn2)C3)c1` (stereo not drawn), the “% Inhibition” value is on record as 3% and the Z score is -0.33.
In the case of `O=S1(=O)N=C(NCCc2cccc3ccccc23)c2ccccc21`, the “% Inhibition” value is given as -2% and the Z score is listed as 0.37.
As for `Cc1ccc(CN(C)Cc2cnc(N3CCCC3)s2)o1`, the “% Inhibition” value was -13% and the Z score was found to be 1.68.
Consider `CNc1nc(N[C@H]2CC[C@@H]3CCC[C@@H]32)ncc1F`, for which the “% Inhibition” value is on record as -1% and the Z score is 0.18.
As to `C=C[C@H](COC)NC(=O)N1CCC(c2cncn2C)CC1`, the “% Inhibition” value was 3% and the Z score is given as -0.64.
Regarding `CCOC(=O)C1CCN(C(=O)[C@@H]2COC3(CCN(C(=O)C(C)C)CC3)N2C(=O)c2ccc(F)cc2)CC1`, the “% Inhibition” value is -6% and the Z score was 0.67.
Consider `O=C(NCCN1CCCC1)C1CCN(c2ncnc3c2nc2n3CCCCC2)CC1`, for which the “% Inhibition” value is -5% and the Z score was determined as 0.74.
Consider `Cc1noc2ncnc(NCc3cc(Cl)cc4c3OCC4)c12`, for which the “% Inhibition” value was -11% and the Z score was 1.16.
On to `CC(C)[C@@H]1CN(C(=O)c2ccc3[nH]nnc3c2)CCCN1CC1CC1`, for which the “% Inhibition” value is on record as -25% and the Z score is given as 2.28.
Turning to `CN(c1ccc(Cl)c(C(=O)N2CCC(C(N)=O)CC2)c1)S(C)(=O)=O`, the “% Inhibition” value is recorded as -5% and the Z score turned out to be 0.91.
For `Cc1ocnc1C(=O)N[C@@H](C)c1nnc(C(C)C)o1`, the “% Inhibition” value is listed as -5% and the Z score is given as 0.94.
The like results for `Cc1nc(C)c(C(=O)Nc2cc(-c3cccc(F)c3F)n[nH]2)o1` were, in that order, -11% and 1.16.
In the case of `C[C@@H](C(=O)Nc1ccc2c(c1)OCCO2)N1CCC(c2nc3ccccc3s2)CC1`, the “% Inhibition” value is listed as -12% and the Z score is 1.52.
For `CC(C)NC(=O)CCc1cc2n(n1)CCN(C(=O)[C@H](N)C1CCCCC1)C2`, the “% Inhibition” value is reported as -5% and the Z score turned out to be 0.96.
As to `O=C(NS(=O)(=O)c1sccc1Cl)C1CCC2CCCCC2C1` (stereo not drawn), the “% Inhibition” value is 1% and the Z score is -0.21.
On to `CC(C)N(CC(F)F)C(=O)CCc1ccc(F)cc1`, for which the “% Inhibition” value is recorded as -5% and the Z score was 0.61.
Consider `CN1CC(C)(C)N(C(=O)c2ccc(CS(C)(=O)=O)o2)c2ccccc21`, for which the “% Inhibition” value is -10% and the Z score came out at 1.16.
For the molecule `CCCOc1cccc2c(NC3CCN(CCOC)CC3)ccnc12`, the “% Inhibition” value is given as 37% and the Z score is listed as -4.91.
For the molecule `CC(C)CC(=O)N1CCc2ccc(OCc3ccc(C(=O)N(C)Cc4ccco4)o3)cc2[C@@H]1c1ccc(F)cc1`, the “% Inhibition” value is given as -4% and the Z score came out at 0.39.
As to `Cc1cc(S(=O)(=O)NCC2(Cn3cccn3)CC2)c(C)s1`, the “% Inhibition” value was -7% and the Z score came out at 0.73.
Regarding `O=C(c1cc(O)nc2ccccc12)N1CCCOCC1`, the “% Inhibition” value is -43% and the Z score was 5.
The like results for `Cc1nc(NCCNS(=O)(=O)c2cccs2)cc(N(C)C)n1` were, in that order, -3% and 0.59.
Take `CCc1onc(C)c1C(=O)N1CCC2(CC1)NC(=O)[C@H](C)O2`: the “% Inhibition” value is listed as 2% and the Z score is -0.27.
Turning to `CCN(CC)c1cc(CCC(=O)N(C)Cc2ccccc2)ccn1`, the “% Inhibition” value is -6% and the Z score was found to be 0.91.
Taken in the same sequence, the figures for `O=C(NCC1(CO)CCC1)Nc1cccc(C(F)(F)F)c1F` were 16% and -2.07.
Regarding `Cc1nc(Cc2c(C)n[nH]c2C)n(-c2cccnc2)n1`, the “% Inhibition” value is recorded as -9% and the Z score turned out to be 1.78.
For `CC(C)O[C@@H](C)c1n[nH]c(=O)n1-c1ccc2c(c1)OCO2`, the “% Inhibition” value is on record as -11% and the Z score was determined as 1.35.
For `c1nc(NC2CC3CCC2O3)cc(NC2CC3CCC2O3)n1` (stereo not drawn), the “% Inhibition” value is on record as -8% and the Z score is reported as 0.68.
For the molecule `CCCN1CCN(C(=O)[C@H]2CCc3ncc(-c4ccsc4)n3C2)CC1`, the “% Inhibition” value was -9% and the Z score is given as 1.62.
The like results for `Cc1c(C(=O)Nc2cnn(CC3CC3)c2)nnn1-c1ccc(Cl)cc1F` were, in that order, 1% and -0.17.
Take `Cc1cc(C(=O)NCCn2c(C)cc(C)nc2=O)nc(C)n1`: the “% Inhibition” value is on record as -10% and the Z score amounted to 1.92.
`CCN(Cc1cnn(C)c1)Cc1sccc1C`: the “% Inhibition” value was found to be 0% and the Z score was -0.06.
With `CNS(=O)(=O)c1cc(C(=O)NC2(c3cccc(C)c3)CCCC2)co1`, the “% Inhibition” value is -15% and the Z score came out at 1.98.
As for `CN(Cc1ccoc1)C(=O)NCC1(c2ccccc2)CC1`, the “% Inhibition” value was -3% and the Z score is listed as 0.32.
As to `CC(=O)N1CCCN(S(=O)(=O)c2ccc3c(c2)CCCC3)CCNC(=O)[C@@H]2CCC[C@@H]21`, the “% Inhibition” value was 31% and the Z score is recorded as -3.48.
The like results for `O=C(NCCc1cccnc1)N1CCC(C2CCOCC2)CC1` were, in that order, -15% and 2.44.
Taken in the same sequence, the figures for `O=C(NCCn1ccn2nccc12)c1ccc(S(=O)(=O)N2CCOCC2)cc1` were 1% and -0.17.
The like results for `FC(F)(F)Cn1nc(Cc2cccs2)nc1CN1CCCC1` were, in that order, -9% and 2.
As for `CC[C@H](NC(=O)N1CCN(c2nccs2)CC1)c1cccc(Cl)c1`, the “% Inhibition” value was 0% and the Z score is 0.06.
`Cc1ccc2c(OCc3ncnn3C)cccc2n1`: the “% Inhibition” value is on record as -9% and the Z score was determined as 1.21.
Turning to `O=C(NCc1cccc2c1OCC2)[C@H]1CCc2[nH]cnc2C1`, the “% Inhibition” value was -16% and the Z score is listed as 2.56.
On to `CN(C)C(=O)[C@H]1CCN(C(=O)c2cc(Br)co2)C1`, for which the “% Inhibition” value came out at 30% and the Z score was -3.44.
The like results for `O=C(NCc1cccnc1)N1CCN(C[C@H]2COCCO2)CC1` were, in that order, 1% and -0.1.
Regarding `O=C(COc1ccc2ccccc2c1)N[C@H]1CC(=O)N(c2ccc3c(c2)OCCO3)C1`, the “% Inhibition” value was -17% and the Z score is 3.28.
The like results for `O=C(NC1CCCCCCC1)[C@H]1CCCN(c2ccc3cc(S(=O)(=O)N4CCCC4)ccc3n2)C1` were, in that order, -3% and 0.38.
For `CC(C)(C)OC(=O)N1C[C@@H](O)CC1=O`, the “% Inhibition” value is 38% and the Z score is -4.9.
Taken in the same sequence, the figures for `NC(=O)c1nc2cc(NCc3cnc(C4CC4)nc3)ccc2o1` were -1% and 0.1.
For the molecule `O=C(C[C@H]1CCOC1)NCc1noc(Cc2cccs2)n1`, the “% Inhibition” value is on record as -9% and the Z score came to 1.62.
In the case of `Cc1nnc(N2CCO[C@H](c3nccs3)C2)c(C#N)c1C`, the “% Inhibition” value is -16% and the Z score stood at 2.16.
For the molecule `Cc1nc(CN2CCN(C(=O)c3cccc4ccnn34)CC2)n[nH]1`, the “% Inhibition” value is on record as -8% and the Z score was determined as 1.71.
For the molecule `COCCN1CCN(CCOc2ccc(F)cc2)[C@H]2CS(=O)(=O)C[C@H]21`, the “% Inhibition” value is given as -5% and the Z score amounted to 0.77.
For the molecule `CCOc1ccc2c(c1)C(C)=CC(C)(C)N2Cc1ccc(CN2c3ccc(OCC)cc3C(C)=CC2(C)C)cc1`, the “% Inhibition” value is -7% and the Z score was found to be 1.4.
As to `Cc1nnc([C@@H]2CC3(CCN(CC(C)C)CC3)CN2C(=O)c2ccccc2)o1`, the “% Inhibition” value stood at 10% and the Z score is listed as -1.33.
Turning to `Cc1cccc(=O)n1CCCN1Cc2ncccc2C1=O`, the “% Inhibition” value is reported as -7% and the Z score amounted to 0.97.
As to `COc1ccccc1O[C@@H](C)C(=O)N(C)CC1(C)COC1`, the “% Inhibition” value was -1% and the Z score is on record as 0.13.
Regarding `O=C(Nc1ccc(Oc2ccsc2C(=O)O)cc1)c1cccs1`, the “% Inhibition” value is recorded as -1% and the Z score is listed as 0.12.
In the case of `CCN(C)C(=O)C1CN(C(=O)c2ccc(Cl)cc2)CC1c1ccc(C)cc1` (stereo not drawn), the “% Inhibition” value is -11% and the Z score came to 1.03.
Taken in the same sequence, the figures for `Cc1noc(C)c1C(=O)NCC1CCN(C(=O)c2cc3ccccc3s2)CC1` were -3% and 0.5.
